Consider 14 molecules from paper PMC12136788.

B1: chr9:34241424:34241533:+|CDS|ENSG00000165006|unk|FALSE|unique (ssRNA)
RNA: GGGAGUUCUACAGUCCGACGAUCAACCCCAUCCUCGCCAGCUUGCAGCACAACAGCAUCCUCACACCAACUCGGGUCAGCAGUAGUGCCACGAAACAGAAAGUUCUCAGCCCACCUCACAUAAAGGCGGAUUUCAAUCUUGCUCAACAGAGGAUUGAGCAUCA
B2: ENSG00000198589:be:win_2551|CDS|ENSG00000198589|bound_else_gene|NA|bound_elsewhere_windowed (ssRNA)
RNA: GGGAGUUCUACAGUCCGACGAUCAAUAACAGUAGAGAAAACAGGAGGAGCUUGCUACAAUGCUCUGUGUGGCAAGAAUGGAUGCUUUCUCUCUGCUAUUUUAAUCCUAAGAAUUCAGAUGAGCAAAAGAUAACAGAAAUGGUACAACAGAGGAUUGAGCAUCA
B3: chr14:70725707:70725808:-|3pUTR|ENSG00000006432|unk|FALSE|unique (ssRNA)
RNA: GGGAGUUCUACAGUCCGACGAUCGUCGAAUAUCAGCUAUUUCAUAUGGUUCACCCUAAUGUACCUGCCUCUCUCUUUGGCUUUAGGUCUGAGAAUGACUUGUCUUUGUCAAGGUAUACUAUUGUUAGAAACGCAUUACCAAAUCAACAGAGGAUUGAGCAUCA
B4: ENSG00000107863:be:win_1101|CDS|ENSG00000107863|bound_else_gene|NA|bound_elsewhere_windowed (ssRNA)
RNA: GGGAGUUCUACAGUCCGACGAUCGGCUCCCUCUGUAUCUGUUAAUCACUAUUCGCCAAAUUCCCAUCAGCACAUAGACUGGAAAAACUAUAAAACUUACAAAGAGUAUAUUGAUAACAGACGAUUGCACAUAGGUUGUCGGACCAACAGAGGAUUGAGCAUCA
B5: chr8:100287602:100287712:-|CDS|ENSG00000034677|unk|FALSE|unique (ssRNA)
RNA: GGGAGUUCUACAGUCCGACGAUCUGUGUGGAUUGCUUACGACAAUAUUUAAGGAUAGAAAUCUCUGAAAGCAGAGUUAAUAUUAGUUGCCCAGAAUGUACUGAACGGUUUAAUCCCCAUGAUAUUCGCUUGAUAUUAAGUGAUCAACAGAGGAUUGAGCAUCA
B6: chr10:101781316:101781432:-|3pUTR|ENSG00000107833|unk|total|mutant (ssRNA)
RNA: GGGAGUUCUACAGUCCGACGAUCCCCACCUGCCUGUGAGAAUUGGAGGUCCGUGCCUGAAGCUCAGAGCUACACAUUUUUAACCGUUUUUACAUUUUUGGAUAAAGGUUGAAAUAAAGUGGUGUGGAGUUUUUGCAGCUCUUGCAACAGAGGAUUGAGCAUCA
B7: ENSG00000165434:stop:overlap|stop_codon|ENSG00000165434|stop_codon|NA|stop_codon (ssRNA)
RNA: GGGAGUUCUACAGUCCGACGAUCAUGCUCUGAUAGAGAAUUUUCUUCAGCCUAGUAAGAAUGGACUGAUCUGGCGUUCUGUUUAGGGGUACACCAAUAUGUCAUGACACUGUGUGGGCAUAUGGAACAGAGCAACCGAGAACUCAACAGAGGAUUGAGCAUCA
B8: chr10:59791032:59791133:-|3pUTR|ENSG00000108091|msi1|total|mutant (ssRNA)
RNA: GGGAGUUCUACAGUCCGACGAUCUAAUCAUAAUACAGUUCUCAGAUGCAGGGAAGAAGUUUGGCAUUUAAUCAUUGAGGCUUCCGGUUUUUGAUGUGAUCAGACUGGGCCAUGUCAAACCCGGAAUUUUCACCAACAGUUCACCAACAGAGGAUUGAGCAUCA
B9: chr3:48693060:48693174:-|CDS|ENSG00000068745|unk|FALSE|unique (ssRNA)
RNA: GGGAGUUCUACAGUCCGACGAUCCCUUCCAGGUGUGGUAUCUGUGCGCUUUGAAGAAGAUGAAGACAGGAACUUGUGUCUAAUAGCAUAUCCAUUGAAAGGGGACCAUGGAAUUGUGGACAUUGUAGAUAAUUCAGACUGUGACAACAGAGGAUUGAGCAUCA
B10: ENSG00000146216:stop:overlap|stop_codon|ENSG00000146216|stop_codon|NA|stop_codon (ssRNA)
RNA: GGGAGUUCUACAGUCCGACGAUCUGCUCCGCAUCUCGCGGUCCCAGCUGCAGCAGGUGUGGGCCCGGUUCACCCACAAGACCUAGGCUGGGCCCCCCCCCUCCUGGAGGGGGCAGGUGGGGGGGGGUGGGGAGCAGGCAGAGGCAACAGAGGAUUGAGCAUCA
B11: chr9:35091239:35092767:-|three_prime_utr|ENSG00000165282|control|control|control (ssRNA)
RNA: GGGAGUUCUACAGUCCGACGAUCAGGCUUUCCAUUCUGCCCUCUACUCCUGACACCUGUGGCCUGGGGCCUGGUUGGGGCCAUAGCGUAUGCUGGACUCCUGGGAACUAUUGAGCUGAAGCUAGAUCUAGUGCUUCUAGGGGCCAACAGAGGAUUGAGCAUCA
B12: chr8:100258838:100258944:-|CDS|ENSG00000034677|unk|total|mutant (ssRNA)
RNA: GGGAGUUCUACAGUCCGACGAUCAGUGAAUUUGAGGCUCCAUCCCUCAGUGACAGUAUGCCUUCUGCCGCAGAUUCUCACUCCCGUCAUUUUUCUGAAUUCCGUUGUUCUGACCCCGAAAGCAUGAAAACUUCUUGCCGUCAUCAACAGAGGAUUGAGCAUCA
B13: ENSG00000136271:stop:overlap|stop_codon|ENSG00000136271|stop_codon|NA|stop_codon (ssRNA)
RNA: GGGAGUUCUACAGUCCGACGAUCCUGUGCUCAACUUUGAUCUUCCCCCAACCCCUGAGGCCUACAUCCAUCGAGCUGGCAGGUAGUAGUGUGACGGCCCAGGCAUCUGCAUGGACAGCACGCGCUAACAACCCAGGCAUAGUCCAACAGAGGAUUGAGCAUCA
B14: ENSG00000117298:stop:overlap|stop_codon|ENSG00000117298|stop_codon|NA|stop_codon (ssRNA)
RNA: GGGAGUUCUACAGUCCGACGAUCAGGAGACAGGAACCCGAGAAGUAGCUGAAGCAGAAGCCAGCCGCAGUCCCCUUGCCACAUAGAGGCGGGCUUCUCCCAGCCAUGGUGUCCCCUCUGCCUCCCCUCCCCCGACCCUCCUGCCAACAGAGGAUUGAGCAUCA

The other results are listed elsewhere or left out.

The target of this experiment is T1, UNK ZnF1-6 (called full-length) (human, UniProt Q9C0B0 30-357).
T1 sequence: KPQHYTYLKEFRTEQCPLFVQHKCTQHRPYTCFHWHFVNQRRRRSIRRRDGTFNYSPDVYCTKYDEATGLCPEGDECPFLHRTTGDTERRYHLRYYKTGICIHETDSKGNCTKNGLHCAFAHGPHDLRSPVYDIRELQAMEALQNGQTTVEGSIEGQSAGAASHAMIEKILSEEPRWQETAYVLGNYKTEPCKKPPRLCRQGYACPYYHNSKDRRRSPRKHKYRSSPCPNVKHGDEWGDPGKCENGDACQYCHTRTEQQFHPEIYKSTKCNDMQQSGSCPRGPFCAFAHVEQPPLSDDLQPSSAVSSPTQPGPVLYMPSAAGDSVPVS
Nature of the experiment: nsRBNS (natural sequence RNA bind-n-seq); RBNS binding buffer (assumed for nsRBNS): 25 mM Tris pH 7.5, 150 mM KCl, 3 mM MgCl2, 0.01% Triton X-100, 500 ug/ml BSA, 20 U/ml SUPERase-In, 4 C; UNK is unkempt and MSI1 is Musashi-1; names of the RNAs are library labels; protein concentration not given here; high values mean tight binding.
For the molecule B1, the binding signal was 0.809 enrichment R. The molecule B2 gave a binding signal of 0.473 enrichment R. For B3 the value was 1.31 enrichment R; for B4, 0.69 enrichment R; for B5, 0.889 enrichment R. For B6 the value was 0.456 enrichment R; for B7, 0.595 enrichment R; for B8, 0.617 enrichment R. In the case of B9 it was 0.967 enrichment R.

B10 had a binding signal of 0.441 enrichment R. B11 gave a binding signal of 1.23 enrichment R. In the case of B12 it was 0.49 enrichment R; in that of B13, 0.398 enrichment R. For B14 the value was 1.39 enrichment R.
